For 90 compounds, TGI and GI50 results are on record in PubChem BioAssay (NCI).

This test deals with NCI-H322M lung. As to the kind of experiment: NCI-60 cell line screen, 48 h.

Each structure is given as a SMILES string. Values joined by “and” are separate entries in the source; they are usually repeats but may differ in a detail not shown here. Equal values may be shown once.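 1) Cells in 96-well plates. 2) Compound, 48 h, 5 concentrations. 3) Linear interpolation between surrounding doses. 4) Unreached endpoint = highest concentration. GI50 is the concentration that inhibits growth by half. At the TGI there is no net growth.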 Where only a bound is given, the exact number is not on record here.

`O=C(CC1C(=O)Nc2ccccc2S1=O)Nc1cc(Cl)ccc1Cl` (stereo not drawn) registered a TGI of more than 100 µM.

Consider `O=C1c2ccccc2C(=O)N1n1c(Cc2ccc([N+](=O)[O-])cc2)n[nH]c1=O`, for which the TGI is more than 100 µM.

The compound `O=C(O)COc1ccccc1C(=O)Nc1ccccc1` displayed a TGI of more than 100 µM.

`COc1ccc(C2OC(c3ccncc3)=NN2C)cc1F` (stereo not drawn) displayed a TGI of more than 100 µM.

In turn, `N#C/C(=C\c1ccc2ccccc2c1)C(=O)c1ccccc1` came in with a TGI of more than 100 µM.

Take `Nc1ncc(-c2ccc3ncnc(Nc4ccc(F)c(Cl)c4)c3c2)cn1`: the GI50 is 0.237 µM and the TGI amounted to 7.83 µM.

Regarding `O=C1N=C2Sc3ccc4ccccc4c3N2C1=O`, the TGI was found to be 56.4 µM.

`C=C1C(=O)CC2C1CC(=O)/C(C)=C/CCC(C)(O)C2O` (stereo not drawn) had a TGI of 75.1 µM.

In turn, `O=c1oc2cc(O)ccc2c(O)c1C(c1ccccc1)c1c(O)c2ccc(O)cc2oc1=O` gave a TGI of more than 100 µM.

For the compound `COC(=O)C1CCCC2(C1)OCCO2` (stereo not drawn), the TGI was more than 100 µM.

As for `Cc1nc(C)c(N2CCN([N+](=O)[O-])CC2)c(=O)[nH]1`, the TGI is more than 100 µM.

With `COc1cc(OC)c2c(=O)cc(-c3ccc(OC)c(OC)c3OC)oc2c1`, the TGI was more than 100 µM.

As to `CC(C)SC(=S)Sc1c(Cl)c(Cl)nc(Cl)c1Cl`, the TGI was determined as 28.7 µM.

With `CCCCCCCCCCCCCCCCNc1cccc2ccccc12`, the TGI is more than 100 µM.

Turning to `O=C(O)c1ccccc1CC(Cc1ccc2c(c1)CCC2)C(=O)O` (stereo not drawn), the TGI was more than 100 µM.

As for `O=c1c(F)cn(Cc2ccc(C34CC5CC(CC(C5)C3)C4)c(O)c2)c(=O)n1Cc1ccc(C23CC4CC(CC(C4)C2)C3)c(O)c1`, the GI50 was 15.7 µM and the TGI came out at 30.6 µM.

For `COc1ccc2/c(=C/c3ccc(N(C)C)cc3)c3cc(-c4ccccc4)[n+](C)n3c2c1`, the TGI was 1.99 µM.

For the compound `CN1C(=O)c2ccccc2NC(=O)C12O[C@@H]2c1ccccc1` (stereo partly drawn), the TGI is more than 100 µM.

Compound `COC1=CC(=O)c2c(c(-c3nc(C)cs3)cn2C)C1=O` showed a TGI of 44.8 µM.

As for `CC(C)(C)c1cc(C(P(=O)(O)O)P(=O)(O)O)cc(C(C)(C)C)c1O`, the TGI was more than 100 µM.

Regarding `N=c1c2c(-c3ccccc3)c(-c3ccccc3)n(Cc3ccccc3)c2ncn1C1CCC(O)CC1` (stereo not drawn), the GI50 is 0.352 µM and the TGI stood at 14.6 µM.

Compound `CCCNc1ncnc2c1ncn2C` showed a TGI of more than 100 µM.

In the case of `COC(=O)C(Cc1ccc2c(c1)CCC2)Cc1ccc2c(c1)CCC2`, the TGI is more than 100 µM.

Take `Cc1ccc(S(=O)(=O)n2c3c(c4ccccc42)CCN2C[C@H]([C@H](C)Br)CC[C@@H]32)cc1`: the TGI was more than 100 µM.

As for `Cc1nc(N)sc1N=Nc1ccccc1Br`, the TGI amounted to 80.5 µM.

`CCN(CC)CCNc1nc(N)c(C#N)c(C#N)c1C#N` gave a TGI of more than 10 µM.

In the case of `O=C(O)CCNc1ncnc2nc[nH]c12`, the TGI was more than 100 µM.

Consider `COC(=O)c1c2c(c(C)[n+]([O-])c1C)C(=O)C=C(NCc1ccc(F)cc1)C2=O`, for which the GI50 was 0.578 µM and the TGI was 2.27 µM.

Take `COc1cc(Cl)cc(-c2nn(-c3cccc(NC(=O)c4ccc(N5CCOCC5)c(C(F)(F)F)c4)c3)cc2-c2ccncc2)c1`: the GI50 is 73.7 µM and the TGI is more than 100 µM.

In the case of `N#Cc1nn(-c2cc(=O)[nH]c3ccc(Cl)cc23)c(N)c1C#N`, the GI50 is more than 100 µM and the TGI is more than 100 µM.

`CSC1=N/C(=C\c2ccc(C)cc2)C(=O)N1CN1CCCCC1` had a TGI of more than 100 µM.

As to `OC[C@H]1O[C@@H]2O[C@@](COCc3ccccc3)([C@H](OCc3ccccc3)[C@H]2O)[C@@H]1OCc1ccccc1`, the TGI was 26.5 µM.

As to `O=C(OC1CCC(=C2SCCCS2)[C@H]1C1SCCCS1)c1ccccc1` (stereo partly drawn), the TGI is more than 100 µM.

Regarding `O=C1NC(N2CCOCC2)=N/C1=C\c1ccco1`, the TGI was more than 100 µM.

Consider `CC1(C)OC2C(CO[Si](C)(C)C(C)(C)C)OC(n3c(I)c(C#C[Si](C)(C)C)c(=O)[nH]c3=O)C2O1` (stereo not drawn), for which the GI50 is more than 100 µM and the TGI is more than 100 µM.

The compound `C=CCC1(c2ccc(OC)cc2)C=CC(=O)CC1` (stereo not drawn) had a TGI of more than 100 µM.

Consider `COC(=O)c1ccc2c(c1)C(=O)c1c-2n(CCCN=[N+]=[N-])c(=O)c2cc(OC)c(OC)cc12`, for which the GI50 is more than 100 µM and the TGI is more than 100 µM.

The compound `Cc1ccccc1C(=O)c1cc(O)ccc1O` yielded a TGI of more than 100 µM.

Regarding `COc1cnc2c(c1)C(=O)c1c-2n(CCCNC2=NCCS2)c(=O)c2cc([N+](=O)[O-])ccc12`, the GI50 was 0.0427 µM and the TGI amounted to 2.14 µM.

Turning to `C/C(C[n+]1ccccc1)=N\N=C(N)N`, the TGI was more than 100 µM.

Consider `CC(c1ccccc1)N1CCN(C(C)c2ccccc2)CC1` (stereo not drawn), for which the TGI was more than 100 µM.

Turning to `CC(NCCC(c1ccccc1)c1ccccc1)c1ccccc1` (stereo not drawn), the GI50 was 3.43 µM and the TGI was 15.4 µM.

Compound `CC(C)C1=Cc2ccc3c(c2C(=O)C1=O)CCCC3(C)C` yielded a TGI of 29.3 µM.

Consider `COC(=O)/C=C\C(C#N)(C#N)N=Cc1ccc(C)cc1`, for which the TGI was 34.9 µM.

Take `CN1CCN(c2ccc(Nc3cc(-c4cccc(-n5ccc6cc(C7CC7)cc(F)c6c5=O)c4CO)cn(C)c3=O)nc2)CC1`: the GI50 was 5.59 µM and the TGI is 21.8 µM.

As for `O=C(Nc1cccc(C(F)(F)F)c1)c1ccc(NC2=C(Cl)C(=O)N(Cc3ccc(Cl)cc3Cl)C2=O)cc1`, the GI50 was 15.3 µM and the TGI stood at 32.5 µM.

With `COc1ccc2c(c1OCC(=O)O)C(=O)C(CCC(=O)O)CC2` (stereo not drawn), the TGI was more than 100 µM.

`O=C1NC2c3c(I)sc(I)c3C(O)C2O1` (stereo not drawn) gave a TGI of more than 100 µM.

For `O=C(Nc1cc(C(F)(F)F)cc(C(F)(F)F)c1)c1cc(Cl)ccc1O`, the GI50 was 0.3 µM and 0.297 µM; the TGI is > 3.05 µM and 10.8 µM.

`O=C(O)[C@H]1CCCN1CP(=O)(O)CN1CCC[C@@H]1C(=O)O` came in with a TGI of more than 100 µM.

Turning to `NS(=O)(=O)c1ccc(NC(=S)/N=C/C2=C(O)c3ccccc3C2=O)cc1`, the TGI is more than 100 µM.

As for `CCOC(=O)Nc1cc2c(c(N)n1)N=C(c1ccccc1)CO2`, the GI50 is 0.537 µM and the TGI came to 15.6 µM.

`COc1ccc(C(=O)Nc2ccc(O)c(=O)cc2)cc1` registered a TGI of more than 100 µM.

Compound `C/C(=N\N=C1/C(=O)OC(c2ccccc2)=C1C(=O)c1ccccc1)c1ccc([N+](=O)[O-])cc1` had a TGI of more than 100 µM.

Compound `Cc1c(N(C)C)ccc2c(=O)c3cccc(CC(=O)O)c3oc12` registered a TGI of more than 100 µM.

For the compound `CCn1c(O)c(/C=N/NC(=O)C(C)c2ccc(CC(C)C)cc2)sc1=S` (stereo not drawn), the GI50 was 0.608 µM and the TGI was more than 47.5 µM.

Consider `C[C@@H]1C[C@@H]([C@@H](CC2CC(=O)NC(=O)C2)OC(=O)CC(=O)c2ccccc2)C(=O)[C@@H](C)C1`, for which the GI50 is 0.516 µM and the TGI was found to be 11.1 µM.

For the compound `CN(C)C1CCN(C(=O)c2ccc(NC(=O)Nc3ccc(-c4nc(N5CCOCC5)c5cccn5n4)cc3)cc2)CC1`, the GI50 is 0.0364 µM and the TGI was determined as 0.605 µM.

`CCOC(=O)C1S/C(=N\C(=N)N[N+](=O)[O-])N=C1C` (stereo not drawn) showed a TGI of more than 100 µM.

Take `C=CCc1cc(-c2nc(=S)[nH][nH]2)ccc1N=NNc1ccc(C(=O)O)cc1`: the TGI was more than 100 µM.

Take `COC(C)(C)C1(O)CC[C@@H](C)CC1=O` (stereo partly drawn): the TGI was more than 100 µM.

In the case of `O=C(O)CN1CCN2CCCCCN(CC1)CCN(CC(=O)O)CC2`, the TGI is more than 100 µM.

For `COC(=O)/C(=N\NC(N)=S)C(C(=O)OC)C(=O)C(=O)Nc1ccc(C)cc1` (stereo not drawn), the TGI was more than 100 µM.

As to `O=C(CCn1ccnc1[N+](=O)[O-])NCCCn1ccnc1[N+](=O)[O-]`, the TGI was more than 100 µM.

On to `CCOC(=O)c1cccc(N=Nc2nc[nH]c2/C=C/C(=O)OC)c1`, for which the TGI is more than 100 µM.

Regarding `N#CNC(=NCc1ccccc1)N(Cc1ccccc1)Cc1ccccc1`, the TGI is more than 31.6 µM.

`COCC(OC)C(CC=C(C#N)C#N)OC` (stereo not drawn) gave a TGI of more than 100 µM.

`COC(=O)C(=Cc1cc(OC)c(OC)c(OC)c1-c1cc2c(cc1C1(C)OCCS1)OCO2)C(=O)OC` (stereo not drawn) returned a TGI of more than 100 µM.

In turn, `O=P(O)(O)C(N=C(Nc1ccccc1)Nc1ccccc1)P(=O)(O)O` came in with a TGI of more than 100 µM.

`Cc1ccc(C2=CC(=O)OC(C[P+](c3ccccc3)(c3ccccc3)c3ccccc3)(c3ccccc3)O2)cc1` (stereo not drawn) displayed a TGI of 31.8 µM.

Turning to `CC1(C)COC(c2cccc3c2C(=O)c2cccc(Cl)c2-3)=N1`, the TGI is more than 100 µM.

`O=c1[nH][nH]c(=O)n1CCCCCCn1c(=O)[nH][nH]c1=O` came in with a TGI of more than 100 µM.

The compound `O=[N+]([O-])C(=C(Nc1cccc2cccnc12)Nc1cccc2cccnc12)C(Cl)=C(Cl)Cl` showed a TGI of more than 100 µM.

`O=C1c2cc(-c3ccccc3)cnc2S(=O)(=O)N1c1ccc(Br)cc1`: the TGI is more than 100 µM.

`C[N+](C)([O-])CCOc1cc2c(c3ccccc13)-c1ccccc1C2=O`: the TGI was determined as 66.1 µM.

Compound `C/C(CC(=O)Nc1ccc(C)c(C)c1)=N\N(c1ccccc1)c1ccccc1` showed a TGI of more than 100 µM.

For the compound `Cc1c2cc[n+](C)c(C)c2cc2c1[nH]c1ccccc12`, the TGI was found to be 42.7 µM.

Compound `O=C1CCC2(c3ccc(Cl)cc3)Nc3cc(Cl)ccc3N12` (stereo not drawn) yielded a TGI of 27.9 µM.

As to `COc1cc(OC)cc(C(=O)CC(=O)c2cc(OC)cc(OC)c2)c1`, the TGI was more than 100 µM.

`Cc1cc(/N=C/c2ccc(N(C)C)cc2)n(-c2ccccc2)n1` yielded a TGI of more than 100 µM.

In turn, `COc1c(O)c2c(=O)cc3c4c5c(cc(=O)c6c(O)c(OC)c(CC(C)O)c(c(c1CC(C)O)c24)c65)OCO3` (stereo not drawn) showed a TGI of 6.36 µM.

`O=C1OCC/C1=N/O` gave a TGI of more than 100 µM.

`COc1ccc(-c2nnc3n(C)c(=O)c4ccccc4n23)cc1N`: the GI50 is 5.93 µM and the TGI was more than 100 µM.

Turning to `CCCCCCCCCCCCCCCC(=O)OCCOCCOCCOCc1ccccc1`, the TGI was more than 100 µM.

The compound `O=C1CC2(CCC(O)(c3ccc4ccccc4c3)C(C(=O)c3ccc4ccccc4c3)C2)C(=O)c2ccccc2N1` (stereo not drawn) had a TGI of more than 100 µM.

The compound `O=C(NCP(=O)(Oc1ccccc1)Oc1ccccc1)OCc1ccccc1` registered a TGI of more than 100 µM.

Compound `Nc1ccc(N=Nc2c(S(=O)(=O)O)cc3ccccc3c2S(=O)(=O)O)cc1` yielded a TGI of more than 100 µM.

Take `CCCCCC#CCOC(=O)C(=[N+]=[N-])P(=O)(c1ccccc1)c1ccccc1`: the TGI was more than 10 µM.

Take `CC1CC2CCCC(O)=C2C(=O)O1` (stereo not drawn): the TGI was more than 100 µM.

`On1c(-c2ccccc2)c(-c2ccccc2N2CCCC2)c2ccccc21` gave a TGI of more than 100 µM.
